According to the supplement of paper PMC9151546:
± gives the standard deviation of the averaged measurements. Most values come without repeats; read them as rough.

What was measured:
[1] = tested on: CHO-K1; test: micronucleus frequency (% of nucleated events); higher = more micronuclei (genotoxic)
[2] = tested on: CHO-K1; test: relative survival (nuclei to bead ratio vs DMSO control) (% of vehicle control); higher = more surviving cells
Description: (§1)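 Flow-cytometric in vitro micronucleus assay (Litron MicroFlow) in CHO-K1 cells in 96-well plates, 19 concentrations (4.5-200 µM, n=1 per concentration). Without S9, cells were exposed for 24 h and sampled at 48 h. With Aroclor 1254-induced rat liver S9, cells were exposed for 3-4 h and sampled at 27-28 h. Read-outs are %MN and %hypodiploid nuclei relative to nucleated events, and relative survival as the nuclei-to-bead ratio versus the 1% DMSO vehicle control (x100).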

[3] = tested on: CHO-K1; test: hypodiploid nuclei frequency (% of nucleated events); higher = more hypodiploid events (aneugenic)
Description: as §1
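For hypodiploid nuclei frequency (% of nucleated events) in this document: hypodiploid nuclei gated on a flow cytometer with 488 nm excitation after SYTOX Green staining, cultures at 37 °C, positive controls vinblastine without S9 and cyclophosphamide with S9.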
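For micronucleus frequency (% of nucleated events) in this document: cells lysed with nuclei stained by SYTOX Green, then micronucleus-gated events counted against nucleated events by flow cytometry with 488 nm excitation.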
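For relative survival (nuclei to bead ratio vs DMSO control) in this document: Lysed-cell nuclei stained with SYTOX Green and counted against counting beads by flow cytometry at 488 nm excitation, with vinblastine (no S9) and cyclophosphamide (plus S9) as positive controls.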

Nc1cccc2c(N)cccc12 [1,5-Naphthalenediamine]
Settings | hypodiploid nuclei frequency, [3] [%] | micronucleus frequency, [1] [%] | relative survival, [2]
concentration: 4.5 (µM), S9 metabolic activation: with S9, exposure time: 3-4 hours | – | – | 45.7 ± 8.9
concentration: 4.5 (µM), S9 metabolic activation: without S9, exposure time: 24 hours | 0.54 | 1.16 | 130
concentration: 5.63 (µM), S9 metabolic activation: with S9, exposure time: 3-4 hours | – | – | 45.5 ± 10
concentration: 5.63 (µM), S9 metabolic activation: without S9, exposure time: 24 hours | 0.28 | 1.12 | 102
concentration: 7.04 (µM), S9 metabolic activation: with S9, exposure time: 3-4 hours | – | – | 41.6 ± 6.7
concentration: 7.04 (µM), S9 metabolic activation: without S9, exposure time: 24 hours | 0.48 | 1.4 | 106
concentration: 8.8 (µM), S9 metabolic activation: with S9, exposure time: 3-4 hours | – | – | 38 ± 4.7
concentration: 8.8 (µM), S9 metabolic activation: without S9, exposure time: 24 hours | 0.6 | 1.12 | 84.5
concentration: 11 (µM), S9 metabolic activation: with S9, exposure time: 3-4 hours | – | – | 38.7 ± 9.4
concentration: 11 (µM), S9 metabolic activation: without S9, exposure time: 24 hours | 0.64 | 1.22 | 90.3
concentration: 13.7 (µM), S9 metabolic activation: with S9, exposure time: 3-4 hours | – | – | 38 ± 10
concentration: 13.7 (µM), S9 metabolic activation: without S9, exposure time: 24 hours | 0.38 | 1.32 | 117
concentration: 17.2 (µM), S9 metabolic activation: with S9, exposure time: 3-4 hours | – | – | 43.6 ± 15
concentration: 17.2 (µM), S9 metabolic activation: without S9, exposure time: 24 hours | 0.62 | 1.02 | 76.5
concentration: 21.5 (µM), S9 metabolic activation: with S9, exposure time: 3-4 hours | – | – | 42.3 ± 7.2
concentration: 21.5 (µM), S9 metabolic activation: without S9, exposure time: 24 hours | 0.58 | 1.06 | 90
concentration: 26.8 (µM), S9 metabolic activation: with S9, exposure time: 3-4 hours | – | – | 41.6 ± 9.7
concentration: 26.8 (µM), S9 metabolic activation: without S9, exposure time: 24 hours | 0.82 | 1.48 | 93.1
concentration: 33.6 (µM), S9 metabolic activation: with S9, exposure time: 3-4 hours | – | – | 34.4 ± 6.6
concentration: 33.6 (µM), S9 metabolic activation: without S9, exposure time: 24 hours | 0.8 | 1.32 | 114
concentration: 41.9 (µM), S9 metabolic activation: with S9, exposure time: 3-4 hours | – | – | 43 ± 9.1
concentration: 41.9 (µM), S9 metabolic activation: without S9, exposure time: 24 hours | 0.76 | 1.54 | 107
concentration: 52.4 (µM), S9 metabolic activation: with S9, exposure time: 3-4 hours | – | – | 41.7 ± 12
concentration: 52.4 (µM), S9 metabolic activation: without S9, exposure time: 24 hours | 0.64 | 1 | 103
concentration: 65.5 (µM), S9 metabolic activation: with S9, exposure time: 3-4 hours | – | – | 47.8 ± 13
concentration: 65.5 (µM), S9 metabolic activation: without S9, exposure time: 24 hours | 0.82 | 0.9 | 104
concentration: 81.9 (µM), S9 metabolic activation: with S9, exposure time: 3-4 hours | – | – | 37.83 ± 0.2
concentration: 81.9 (µM), S9 metabolic activation: without S9, exposure time: 24 hours | 1.58 | 1.82 | 82.2
concentration: 102 (µM), S9 metabolic activation: with S9, exposure time: 3-4 hours | – | – | 40 ± 0.67
concentration: 102 (µM), S9 metabolic activation: without S9, exposure time: 24 hours | 2 | 1.52 | 81.2
concentration: 128 (µM), S9 metabolic activation: with S9, exposure time: 3-4 hours | 2.86 ± 0.11 | 17 ± 5.7 | 47.4 ± 0.81
concentration: 128 (µM), S9 metabolic activation: without S9, exposure time: 24 hours | 2.28 | 1.38 | 89.1
concentration: 160 (µM), S9 metabolic activation: with S9, exposure time: 3-4 hours | 2.63 ± 0.28 | 13.9 ± 4.7 | 54.8 ± 17
concentration: 160 (µM), S9 metabolic activation: without S9, exposure time: 24 hours | 23.3 | 2.08 | 44.1
concentration: 200 (µM), S9 metabolic activation: with S9, exposure time: 3-4 hours | 2.04 ± 1 | 10.3 ± 5.3 | 48.9 ± 4
concentration: 200 (µM), S9 metabolic activation: without S9, exposure time: 24 hours | – | – | 18.2

O=C=NCCCCCCN=C=O [1,6-Diisocyanatohexane]
Settings | hypodiploid nuclei frequency, [3] [%] | micronucleus frequency, [1] [%] | relative survival, [2]
concentration: 4.48 (µM), S9 metabolic activation: with S9, exposure time: 3-4 hours | 0.22 | 1.42 | 119
concentration: 4.48 (µM), S9 metabolic activation: without S9, exposure time: 24 hours | 0.8 | 2 | 115
concentration: 5.6 (µM), S9 metabolic activation: with S9, exposure time: 3-4 hours | 0.16 | 1.8 | 124
concentration: 5.6 (µM), S9 metabolic activation: without S9, exposure time: 24 hours | 0.92 | 2.76 | 117
concentration: 7 (µM), S9 metabolic activation: with S9, exposure time: 3-4 hours | 0.36 | 2.14 | 128
concentration: 7 (µM), S9 metabolic activation: without S9, exposure time: 24 hours | 0.62 | 1.56 | 128
concentration: 8.75 (µM), S9 metabolic activation: with S9, exposure time: 3-4 hours | 0.28 | 2.26 | 149
concentration: 8.75 (µM), S9 metabolic activation: without S9, exposure time: 24 hours | 0.58 | 2 | 125
concentration: 10.9 (µM), S9 metabolic activation: with S9, exposure time: 3-4 hours | 0.22 | 1.64 | 137
concentration: 10.9 (µM), S9 metabolic activation: without S9, exposure time: 24 hours | 0.78 | 2.08 | 154
concentration: 13.7 (µM), S9 metabolic activation: with S9, exposure time: 3-4 hours | 0.28 | 1.52 | 163
concentration: 13.7 (µM), S9 metabolic activation: without S9, exposure time: 24 hours | 0.52 | 2.08 | 139
concentration: 17.1 (µM), S9 metabolic activation: with S9, exposure time: 3-4 hours | 0.2 | 1.32 | 146
concentration: 17.1 (µM), S9 metabolic activation: without S9, exposure time: 24 hours | 0.36 | 1.66 | 116
concentration: 21.4 (µM), S9 metabolic activation: with S9, exposure time: 3-4 hours | 0.24 | 1.78 | 149
concentration: 21.4 (µM), S9 metabolic activation: without S9, exposure time: 24 hours | 0.52 | 2.14 | 109
concentration: 26.7 (µM), S9 metabolic activation: with S9, exposure time: 3-4 hours | 0.24 | 1.26 | 125
concentration: 26.7 (µM), S9 metabolic activation: without S9, exposure time: 24 hours | 0.62 | 1.7 | 81.1
concentration: 33.4 (µM), S9 metabolic activation: with S9, exposure time: 3-4 hours | 0.2 | 1.18 | 116
concentration: 33.4 (µM), S9 metabolic activation: without S9, exposure time: 24 hours | 0.7 | 1.66 | 103
concentration: 41.7 (µM), S9 metabolic activation: with S9, exposure time: 3-4 hours | 0.22 | 1.46 | 112
concentration: 41.7 (µM), S9 metabolic activation: without S9, exposure time: 24 hours | 0.72 | 1.64 | 89.9
concentration: 52.2 (µM), S9 metabolic activation: with S9, exposure time: 3-4 hours | 0.24 | 1.6 | 91.8
concentration: 52.2 (µM), S9 metabolic activation: without S9, exposure time: 24 hours | 0.94 | 1.84 | 84.1
concentration: 65.2 (µM), S9 metabolic activation: with S9, exposure time: 3-4 hours | 0.22 | 2.02 | 102
concentration: 65.2 (µM), S9 metabolic activation: without S9, exposure time: 24 hours | 0.88 | 1.62 | 89.5
concentration: 81.5 (µM), S9 metabolic activation: with S9, exposure time: 3-4 hours | 0.22 | 1.86 | 98.8
concentration: 81.5 (µM), S9 metabolic activation: without S9, exposure time: 24 hours | 0.74 | 1.52 | 101
concentration: 102 (µM), S9 metabolic activation: with S9, exposure time: 3-4 hours | 0.24 | 1.36 | 106
concentration: 102 (µM), S9 metabolic activation: without S9, exposure time: 24 hours | 1 | 1.94 | 99
concentration: 127 (µM), S9 metabolic activation: with S9, exposure time: 3-4 hours | 0.24 | 1.74 | 110
concentration: 127 (µM), S9 metabolic activation: without S9, exposure time: 24 hours | 1.06 | 2.84 | 109
concentration: 159 (µM), S9 metabolic activation: with S9, exposure time: 3-4 hours | 0.3 | 1.82 | 101
concentration: 159 (µM), S9 metabolic activation: without S9, exposure time: 24 hours | 1.04 | 2.18 | 84.1
concentration: 199 (µM), S9 metabolic activation: with S9, exposure time: 3-4 hours | 0.46 | 1.86 | 101
concentration: 199 (µM), S9 metabolic activation: without S9, exposure time: 24 hours | 1.22 | 2.2 | 75.5
